Data taken from article PMC6760808.
These are yes or no findings as the source states them, for the method shown. Some binding calls cover weakened binding; strength is not graded here. Where a sequence is shown, tags or fusion partners need not be part of it.

Key:
[1] = biological target: T1, NPHP4-mCh-mito (UniProt O75161); experiment: knocksideways (recruitment to the mitochondrial surface, fluorescence microscopy); NPHP-mCh-mito bait on the mitochondrial surface co-expressed with EGFP-tagged nucleoporin in COS-7 cells; fixed 24 hours post-transfection
T1 sequence: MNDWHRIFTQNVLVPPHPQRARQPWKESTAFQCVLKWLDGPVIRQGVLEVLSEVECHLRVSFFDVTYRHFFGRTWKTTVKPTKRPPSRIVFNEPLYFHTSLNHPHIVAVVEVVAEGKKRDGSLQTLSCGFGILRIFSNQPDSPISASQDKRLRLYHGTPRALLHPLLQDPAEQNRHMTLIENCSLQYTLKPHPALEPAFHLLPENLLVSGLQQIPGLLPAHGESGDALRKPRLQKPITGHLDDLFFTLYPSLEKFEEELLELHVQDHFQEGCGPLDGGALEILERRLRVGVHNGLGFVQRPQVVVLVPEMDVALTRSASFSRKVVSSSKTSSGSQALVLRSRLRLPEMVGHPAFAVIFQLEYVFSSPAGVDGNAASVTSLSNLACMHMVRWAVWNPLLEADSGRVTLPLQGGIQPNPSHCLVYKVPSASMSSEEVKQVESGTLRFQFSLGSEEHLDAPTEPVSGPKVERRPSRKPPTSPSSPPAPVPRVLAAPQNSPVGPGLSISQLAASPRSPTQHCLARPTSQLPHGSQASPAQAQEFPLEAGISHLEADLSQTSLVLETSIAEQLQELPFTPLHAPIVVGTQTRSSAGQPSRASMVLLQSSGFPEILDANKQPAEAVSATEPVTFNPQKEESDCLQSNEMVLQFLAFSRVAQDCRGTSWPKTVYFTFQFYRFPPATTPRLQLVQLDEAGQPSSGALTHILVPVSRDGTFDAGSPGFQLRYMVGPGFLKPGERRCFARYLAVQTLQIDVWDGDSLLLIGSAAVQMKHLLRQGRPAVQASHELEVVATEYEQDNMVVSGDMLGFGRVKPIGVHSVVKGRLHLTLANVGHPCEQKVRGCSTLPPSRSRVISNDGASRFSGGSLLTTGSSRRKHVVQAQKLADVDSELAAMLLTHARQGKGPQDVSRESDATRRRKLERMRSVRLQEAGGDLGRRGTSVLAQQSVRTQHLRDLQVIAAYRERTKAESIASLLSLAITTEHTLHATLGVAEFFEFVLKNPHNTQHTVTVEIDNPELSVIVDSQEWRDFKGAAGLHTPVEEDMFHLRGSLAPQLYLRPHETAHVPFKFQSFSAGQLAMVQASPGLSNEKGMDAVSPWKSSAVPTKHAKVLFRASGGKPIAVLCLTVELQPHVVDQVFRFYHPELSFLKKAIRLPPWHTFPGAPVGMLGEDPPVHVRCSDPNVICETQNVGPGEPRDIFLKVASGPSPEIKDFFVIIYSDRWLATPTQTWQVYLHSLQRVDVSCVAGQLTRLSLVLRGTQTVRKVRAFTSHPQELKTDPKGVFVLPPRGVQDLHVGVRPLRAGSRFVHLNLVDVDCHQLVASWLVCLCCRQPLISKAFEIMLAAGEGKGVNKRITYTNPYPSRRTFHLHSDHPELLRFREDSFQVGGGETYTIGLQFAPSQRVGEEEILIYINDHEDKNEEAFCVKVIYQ

[2] = biological target: T2, NPHP5-mCh-mito (mouse) (UniProt Q8BP00); experiment: as above
T2 sequence: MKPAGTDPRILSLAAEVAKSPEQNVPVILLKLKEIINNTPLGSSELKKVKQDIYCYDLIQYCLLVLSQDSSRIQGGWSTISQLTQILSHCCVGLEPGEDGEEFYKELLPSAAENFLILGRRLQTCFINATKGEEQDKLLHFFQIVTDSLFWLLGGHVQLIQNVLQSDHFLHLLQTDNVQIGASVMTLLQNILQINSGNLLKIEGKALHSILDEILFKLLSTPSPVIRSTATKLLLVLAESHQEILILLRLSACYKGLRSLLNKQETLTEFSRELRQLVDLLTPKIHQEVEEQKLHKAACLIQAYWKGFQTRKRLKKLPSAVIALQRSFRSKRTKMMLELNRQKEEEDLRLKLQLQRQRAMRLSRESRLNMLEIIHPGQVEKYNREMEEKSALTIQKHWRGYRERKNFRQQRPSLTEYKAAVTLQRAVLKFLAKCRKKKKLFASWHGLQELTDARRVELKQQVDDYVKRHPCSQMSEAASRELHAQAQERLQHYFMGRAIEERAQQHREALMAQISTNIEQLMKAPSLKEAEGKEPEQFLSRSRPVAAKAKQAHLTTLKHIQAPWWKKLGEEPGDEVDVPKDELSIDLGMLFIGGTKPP

binding [1]: binds | binding [2]: binds
B1: Nup155-EGFP3 (protein, UniProt O75694 1-1391)
chain: MPSSLLGAAMPASTSAAALQEALENAGRLIDRQLQEDRMYPDLSELLMVSAPNNPTVSGMSDMDYPLQGPGLLSVPNLPEISSIRRVPLPPELVEQFGHMQCNCMMGVFPPISRAWLTIDSDIFMWNYEDGGDLAYFDGLSETILAVGLVKPKAGIFQPHVRHLLVLATPVDIVILGLSYANLQTGSGVLNDSLSGGMQLLPDPLYSLPTDNTYLLTITSTDNGRIFLAGKDGCLYEVAYQAEAGWFSQRCRKINHSKSSLSFLVPSLLQFTFSEDDPILQIAIDNSRNILYTRSEKGVIQVYDLGQDGQGMSRVASVSQNAIVSAAGNIARTIDRSVFKPIVQIAVIENSESLDCQLLAVTHAGVRLYFSTCPFRQPLARPNTLTLVHVRLPPGFSASSTVEKPSKVHRALYSKGILLMAASENEDNDILWCVNHDTFPFQKPMMETQMTAGVDGHSWALSAIDELKVDKIITPLNKDHIPITDSPVVVQQHMLPPKKFVLLSAQGSLMFHKLRPVDQLRHLLVSNVGGDGEEIERFFKLHQEDQACATCLILACSTAACDREVSAWATRAFFRYGGEAQMRFPTTLPPPSNVGPILGSPVYSSSPVPSGSPYPNPSFLGTPSHGIQPPAMSTPVCALGNPATQATNMSCVTGPEIVYSGKHNGICIYFSRIMGNIWDASLVVERIFKSGNREITAIESSVPCQLLESVLQELKGLQEFLDRNSQFAGGPLGNPNTTAKVQQRLIGFMRPENGNPQQMQQELQRKFHEAQLSEKISLQAIQQLVRKSYQALALWKLLCEHQFTIIVAELQKELQEQLKITTFKDLVIRDKELTGALIASLINCYIRDNAAVDGISLHLQDICPLLYSTDDAICSKANELLQRSRQVQNKTEKERMLRESLKEYQKISNQVDLSNVCAQYRQVRFYEGVVELSLTAAEKKDPQGLGLHFYKHGEPEEDIVGLQAFQERLNSYKCITDTLQELVNQSKAAPQSPSVPKKPGPPVLSSDPNMLSNEEAGHHFEQMLKLSQRSKDELFSIALYNWLIQVDLADKLLQVASPFLEPHLVRMAKVDQNRVRYMDLLWRYYEKNRSFSNAARVLSRLADMHSTEISLQQRLEYIARAILSAKSSTAISSIAADGEFLHELEEKMEVARIQLQIQETLQRQYSHHSSVQDAVSQLDSELMDITKLYGEFADPFKLAECKLAIIHCAGYSDPILVQTLWQDIIEKELSDSVTLSSSDRMHALSLKIVLLGKIYAGTPRFFPLDFIVQFLEQQVCTLNWDVGFVIQTMNEIGVPLPRLLEVYDQLFKSRDPFWNRMKKPLHLLDCIHVLLIRYVENPSQVLNCERRRFTNLCLDAVCGYLVELQSMSSSVAVQAITGNFKSLQAKLERLH
